The values that follow come from PMC4336329 (PLoS ONE, 2015).

Out of some 310,000 compounds screened, about 14,000 (4.5%) showed an effect of 50% or more. Effects have a minus sign here. This is one part of the list.
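Note: peak tail current of the secondary pulse compared with the same well before compound.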

The target of the assay is human ether-à-go-go-related gene (hERG) potassium channel (human, UniProt Q12809). As to the kind of experiment: primary screen, population patch clamp on CHO cells stably expressing hERG.
human ether-à-go-go-related gene (hERG) potassium channel, sequence (Q12809 whole entry, looked up): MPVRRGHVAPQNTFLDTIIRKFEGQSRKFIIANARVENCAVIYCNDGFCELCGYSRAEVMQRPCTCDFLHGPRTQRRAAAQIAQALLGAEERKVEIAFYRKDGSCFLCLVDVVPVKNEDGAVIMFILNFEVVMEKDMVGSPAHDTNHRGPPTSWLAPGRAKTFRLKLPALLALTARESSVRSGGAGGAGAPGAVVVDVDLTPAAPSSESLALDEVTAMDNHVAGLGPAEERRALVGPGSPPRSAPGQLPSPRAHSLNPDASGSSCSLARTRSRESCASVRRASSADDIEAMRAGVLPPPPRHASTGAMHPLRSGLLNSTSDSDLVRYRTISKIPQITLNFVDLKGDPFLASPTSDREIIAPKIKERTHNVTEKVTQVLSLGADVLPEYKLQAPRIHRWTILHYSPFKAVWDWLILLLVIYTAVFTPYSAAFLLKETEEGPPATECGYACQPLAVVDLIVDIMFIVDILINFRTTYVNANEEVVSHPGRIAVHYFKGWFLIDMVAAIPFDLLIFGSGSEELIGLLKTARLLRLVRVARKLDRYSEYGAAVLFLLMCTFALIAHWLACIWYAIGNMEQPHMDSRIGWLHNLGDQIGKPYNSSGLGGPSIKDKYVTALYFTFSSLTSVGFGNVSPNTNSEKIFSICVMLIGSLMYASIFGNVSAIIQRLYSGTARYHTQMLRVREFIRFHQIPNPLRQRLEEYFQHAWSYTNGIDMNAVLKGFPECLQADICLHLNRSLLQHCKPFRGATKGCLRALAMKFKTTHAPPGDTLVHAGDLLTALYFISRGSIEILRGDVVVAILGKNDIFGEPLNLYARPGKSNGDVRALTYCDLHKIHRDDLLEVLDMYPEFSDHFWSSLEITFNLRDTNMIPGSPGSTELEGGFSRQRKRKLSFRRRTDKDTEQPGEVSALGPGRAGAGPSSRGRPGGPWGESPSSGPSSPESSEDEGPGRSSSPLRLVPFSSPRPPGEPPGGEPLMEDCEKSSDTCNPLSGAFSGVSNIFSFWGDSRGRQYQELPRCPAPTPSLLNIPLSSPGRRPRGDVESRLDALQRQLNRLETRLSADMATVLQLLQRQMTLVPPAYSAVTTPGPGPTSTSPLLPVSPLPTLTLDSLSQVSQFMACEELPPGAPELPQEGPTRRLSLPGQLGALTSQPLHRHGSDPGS
With `Cc1c(NC(=O)Nc2cccc([N+](=O)[O-])c2)c(=O)n(-c2ccccc2)n1C`, the “hERG current change (%, negative = inhibition) at 10uM” value is -21.1%.

Take `Cc1c(Cc2ccc3c(c2)OCO3)sc(NC(=O)c2cccc3ccccc23)c1C(N)=O`: the “hERG current change (%, negative = inhibition) at 10uM” value amounted to 17.4%.

Turning to `COc1cc(C(=O)Nc2ccc3nc4n(c(=O)c3c2)CCCC4)ccc1Br`, the “hERG current change (%, negative = inhibition) at 10uM” value is -25%.

Take `COc1ccccc1CNC(=O)C(NC(=O)Nc1ccccc1)C(C)C` (stereo not shown): the “hERG current change (%, negative = inhibition) at 10uM” value worked out at 13%.

For the molecule `CCCC(=O)O[C@@H]1C[C@@H](C)N(C(=O)c2ccccc2)c2ccc(C)cc21`, the “hERG current change (%, negative = inhibition) at 10uM” value was -37.7%.

In the case of `NC(=Nc1ccc(Br)cc1)c1ccccc1`, the “hERG current change (%, negative = inhibition) at 10uM” value is recorded as 5.73%.

Take `CCN(CC(=O)N1CCCC1)S(=O)(=O)c1ccc(Br)cc1`: the “hERG current change (%, negative = inhibition) at 10uM” value is reported as 13.5%.

On to `Cn1cnc(S(=O)(=O)N2CCN(c3cccc(C(F)(F)F)c3)CC2)c1`, for which the “hERG current change (%, negative = inhibition) at 10uM” value is given as 7.43%.

`Cc1ccccc1N1C(S)=C(C#N)C(=O)NC1c1cccs1` (stereo not shown): the “hERG current change (%, negative = inhibition) at 10uM” value was 21.7%.

Regarding `Cc1c(NS(=O)(=O)c2ccc(N(C)C3CCCCC3)c([N+](=O)[O-])c2)c(=O)n(-c2ccccc2)n1C`, the “hERG current change (%, negative = inhibition) at 10uM” value is -22%.

Consider `COCCCNC(=O)NC(=O)c1ccccc1`, for which the “hERG current change (%, negative = inhibition) at 10uM” value is 12%.

In the case of `COc1ccc(CCN2Cc3c(N)cccc3C2=O)cc1OC`, the “hERG current change (%, negative = inhibition) at 10uM” value stood at 17.9%.

In the case of `Cc1[nH]c2ccccc2c1N=Nc1c(C)n(C)n(-c2ccccc2)c1=O`, the “hERG current change (%, negative = inhibition) at 10uM” value was found to be 11.3%.

As for `CCc1ccccc1OCc1nc2ccc(S(=O)(=O)N3CCOCC3)cc2[nH]1`, the “hERG current change (%, negative = inhibition) at 10uM” value is -42.7%.

Consider `O=C1/C(=C/c2cccs2)NC(=S)N1C1CC1`, for which the “hERG current change (%, negative = inhibition) at 10uM” value is -7.14%.

For the molecule `CCOc1ccc2[nH]c(C)c(CN3CCOCC3)c(=O)c2c1`, the “hERG current change (%, negative = inhibition) at 10uM” value is on record as 16.7%.

Take `CCOC(=O)C1CCCN(C(=O)C2CCN(c3nnc(-n4cccc4)s3)CC2)C1` (stereo not shown): the “hERG current change (%, negative = inhibition) at 10uM” value is -48.6%.

`Cc1cccc(C(=O)NCc2nnc(SCC(=O)N3CCN(c4ccccc4)CC3)n2C)c1`: the “hERG current change (%, negative = inhibition) at 10uM” value worked out at 7.34%.

In the case of `CCN(c1ccc(OC)cc1)S(=O)(=O)c1nnc(NC(=O)COc2ccc(C)cc2)s1`, the “hERG current change (%, negative = inhibition) at 10uM” value came to 14.8%.

Take `CC(=O)/C(=C\Nc1ccc(OCc2ccccc2)cc1)c1ccccc1`: the “hERG current change (%, negative = inhibition) at 10uM” value is -3.12%.

Regarding `COc1ccccc1OCCNC(=O)c1ccc(Br)cc1`, the “hERG current change (%, negative = inhibition) at 10uM” value is recorded as -6.49%.

With `CC1=CC(C)[C@H](/C=N/n2c(=O)[nH]c3c([nH]c4ccc(C)cc43)c2=O)C(C)C1` (stereo partly shown), the “hERG current change (%, negative = inhibition) at 10uM” value came out at 17.4%.

On to `CCN(CC)CCN1C(=O)C(=O)/C(=C(/O)c2c(C)[nH]c(C(=O)OC)c2C)C1c1cccs1` (stereo not shown), for which the “hERG current change (%, negative = inhibition) at 10uM” value is 3.31%.

In the case of `COc1ccc(NC(=O)C2CCCN(c3cnccn3)C2)c(OC)c1` (stereo not shown), the “hERG current change (%, negative = inhibition) at 10uM” value is recorded as 21.4%.

Regarding `COc1cc(OC)c(C(=O)NCCCN2CCOCC2)cc1OC`, the “hERG current change (%, negative = inhibition) at 10uM” value was determined as 13.1%.

Turning to `COc1ccc(/C=N/NC(=O)c2nc(-c3ccccc3)n(-c3ccccc3)n2)c(O)c1`, the “hERG current change (%, negative = inhibition) at 10uM” value was 11.6%.

`COc1ccc(N(C(=O)C2CCCCC2)C2C=CS(=O)(=O)C2)c(OC)c1` (stereo not shown): the “hERG current change (%, negative = inhibition) at 10uM” value is recorded as -2.51%.

Turning to `COc1ccc(C(C)(C)C)cc1NC(=O)c1ccc[n+]([O-])c1`, the “hERG current change (%, negative = inhibition) at 10uM” value is given as 18.8%.

On to `Cc1ccc2nc(NC(=O)C3CCN(c4ncnc5sc(C)c(C)c45)CC3)sc2c1`, for which the “hERG current change (%, negative = inhibition) at 10uM” value is reported as -24.5%.

Take `O=C(CCCOc1ccccc1)Nc1ccc(Br)cc1`: the “hERG current change (%, negative = inhibition) at 10uM” value is recorded as 22.3%.

As to `CCn1c(SCC(=O)Nc2ccc(N(C)C)cc2)nnc1C1CC1`, the “hERG current change (%, negative = inhibition) at 10uM” value was found to be 15.8%.

Take `Br.Cn1c(CS/C(N)=N/N=C/c2ccccc2)c(Br)c(=O)n1-c1ccccc1`: the “hERG current change (%, negative = inhibition) at 10uM” value is given as -25.5%.

In the case of `CCN(CC)S(=O)(=O)c1ccc2oc(SCC(=O)Nc3cc(C)on3)nc2c1`, the “hERG current change (%, negative = inhibition) at 10uM” value is -7.68%.

As for `O=C(COC(=O)CC12CC3CC(CC(C3)C1)C2)Nc1ncc(Cl)cc1Cl`, the “hERG current change (%, negative = inhibition) at 10uM” value is on record as -20.1%.

Turning to `COc1cc(/C=C(\C#N)C(=O)Nc2ccc3c(c2)OCCO3)ccc1O`, the “hERG current change (%, negative = inhibition) at 10uM” value turned out to be 3.28%.

With `CCOC(=O)c1c(NC(=S)N2CCN(C)CC2)sc(C)c1-c1ccccc1`, the “hERG current change (%, negative = inhibition) at 10uM” value is listed as -5.42%.

In the case of `Cc1nnc(C)n1/N=C/c1ccc2c(c1)OCCO2`, the “hERG current change (%, negative = inhibition) at 10uM” value turned out to be 5.7%.

Regarding `Cc1cc(C(C)(C)C)cc(S(=O)(=O)NCC(=O)O)c1C`, the “hERG current change (%, negative = inhibition) at 10uM” value came to 10.3%.

For the molecule `CCc1cc(=O)oc2c(C)c(OCC(=O)NCc3ccccn3)ccc12`, the “hERG current change (%, negative = inhibition) at 10uM” value amounted to 10.2%.

Regarding `Cc1ccc(Nc2c([N+](=O)[O-])c(=O)oc3ccccc23)cc1`, the “hERG current change (%, negative = inhibition) at 10uM” value amounted to 7.67%.

On to `O=C(COC(=O)c1ccccc1NC(=O)c1ccco1)Nc1ccc2c(c1)OCO2`, for which the “hERG current change (%, negative = inhibition) at 10uM” value is -3%.

`Cc1ccc(Nc2nc(-c3sc(NC(=O)c4ccco4)nc3C)cs2)cc1`: the “hERG current change (%, negative = inhibition) at 10uM” value is reported as -3.82%.

`O=C(Nc1ccc2nc3n(c(=O)c2c1)CCCCC3)C(=O)N1CCN(c2ccccc2)CC1`: the “hERG current change (%, negative = inhibition) at 10uM” value was -0.831%.
